The supplement of paper PMC3334620
Whole data set: some 33,000 sequences, median “E-score (-0.5 to 0.5)” near -0.013, cut for the highest 2% near 0.3. This is one part of the list.

target: T1, Msn1 (UniProt P22148); assay: PBM E-score (8-mer binding enrichment) (E-score (-0.5 to 0.5)); higher = stronger / more preferred TF binding; most listed sequences are background and not binding sites; settings: protein concentration: 200 nM; construct: GST-full length
T1 sequence: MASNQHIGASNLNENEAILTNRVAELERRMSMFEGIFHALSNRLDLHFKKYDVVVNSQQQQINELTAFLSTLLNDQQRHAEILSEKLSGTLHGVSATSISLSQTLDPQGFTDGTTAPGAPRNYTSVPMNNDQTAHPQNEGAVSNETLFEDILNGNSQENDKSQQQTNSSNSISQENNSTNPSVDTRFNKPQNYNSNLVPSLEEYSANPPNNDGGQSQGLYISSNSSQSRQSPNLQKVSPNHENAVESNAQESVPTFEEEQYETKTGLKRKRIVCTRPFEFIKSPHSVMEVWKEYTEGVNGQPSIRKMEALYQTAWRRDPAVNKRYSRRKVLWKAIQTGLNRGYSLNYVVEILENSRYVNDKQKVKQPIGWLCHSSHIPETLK
How it was run: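 Yeast transcription factors carrying a GST tag, as full-length proteins or DNA-binding domains, were produced by PURExpress in vitro transcription/translation. About 100-200 nM protein was applied to universal all-10-mer Agilent arrays, double-stranded by primer extension on fresh or once-stripped slides. Bound protein was detected with fluorescent anti-GST, and scans were normalised with masliner. The Universal PBM Analysis Suite gave each ungapped eight-base word, pooled with its reverse complement, an E-score, a modified Wilcoxon-Mann-Whitney statistic.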

Sequence | PBM E-score
GACGCCGC | -0.1
CCGCAATA | 0.0969
CAACAAAG | 0.00876
GATACGAA | 0.0137
ACAGTACG | -0.102
CAAATCGA | -0.00221
ATACGTTC | -0.14
ACTCTATC | 0.0167
GGTGCTTA | 0.00083
AGTCCTTA | 0.177
CCGTTAAA | 0.00335
CTCAGAAC | 0.0291
CACAGCCG | 0.0176
AACATCGA | 0.0685
GCCAGGGA | -0.262
ATCACAAA | 0.0717
GGGGTAAC | -0.127
CGGTTCAA | -0.161
AGCGTGGA | -5e-05
ACAGGCTC | -0.0946
ATTGCTAG | 0.0816
GGAGCTCA | -0.0253
GGCACACA | 0.0778
CGTGTTAA | -0.00332
CATCCGAG | 0.0778

Sequence | PBM E-score
CGTGCCAC | -0.0683
GCTTTCAA | 0.079
CGGCTACG | -0.306
ACAAAGGG | 0.125
GAGTCTAA | -0.0703
CGACAGAA | 0.167
ATGTTTAA | -0.0496
AGAGAACG | -0.0915
AGAAGTCA | 0.06
ATACTGTC | 0.112
AGGCGCGC | -0.0129
CTCCTGCA | -0.33
GACAGAGC | 0.0447
AGGGAAAA | 0.0219
AAAAAGGG | 0.00357
AGAGGGTC | -0.179
AACTGGGA | -0.00988
GCTACCCA | -0.156
CTGCATTC | -0.109
AAGTCGTC | -0.0133
CAACACAC | 0.134
TACCCCTA | -0.142
CGCAAGCG | -0.164
GGTCGGAC | 0.1
AGCCGTTC | -0.278

Sequence | PBM E-score
ATATCAAA | 0.0618
TAGATCTA | -0.014
AGTGTAGA | -0.102
ACTCGATG | 0.0509
CGCAGGGA | -0.161
CAGGCCTG | 0.0727
CCTCAGGA | 0.0452
ATCTAGAA | 0.0372
CCTTCTGA | -0.104
ACTCTTTC | -0.00101
GCTCGCAA | 0.076
AAAACCCA | 0.0857
ACTGGGTG | -0.104
CCCCAAAA | 0.209
ATATACGG | 0.147
CTTCGTAA | 0.0853
CCTAATAA | 0.28
CATCTAGG | -0.109
ATGATAAA | 0.194
ATAAGCCC | -0.245
GGATACGA | -0.00578
AAGCCGTA | -0.0189
GTGGGTCA | -0.23
AAGGCATA | -0.111
AAGGCAGT | -0.0959

Sequence | PBM E-score
GATATCGC | 0.014
ACGCATGG | -0.138
ACGTACGG | 0.0575
AGACCGAA | 0.0537
GAATAGAA | 0.102
CTGCTAAG | -0.166
CGAGGGCA | -0.197
GCACACGA | 0.00337
ATCGCTAA | 0.0831
ACACAACG | -0.017
ATCGGTGC | 0.124
AATCATTC | 0.0947
ACTAGACC | 0.0586
AACTCGCC | -0.0314
CACCTGTA | -0.15
GGAGGCAC | -0.0207
ACTTACCG | 0.141
ATACAAAG | 0.254
CTAGGGTC | -0.211
CACGGGCG | -0.102
AGTTGCTA | 0.0852
CAGACACA | 0.28
ATCGGTAA | -0.0108
AGGCACAG | -0.14
AGCCTTGA | -0.0272

Sequence | PBM E-score
CGAGGCAA | 0.172
CGAATAAA | 0.309
TCACTCGA | 0.144
AACAGCGT | 0.0185
AATCAGCT | 0.0707
CGTGACGC | 0.178
CAAACCCC | -0.177
ATTAACTG | 0.105
GATCGGAA | 0.123
GATAATGC | -0.0121
GAATAAGC | -0.016
ACAAAGAA | 0.302
CTGAGGCC | -0.161
TGCTAGAA | 0.105
GTCTCCTA | -0.257
TCTGTAAA | 0.0523
ACCAAGGT | -0.237
ACCATCCT | -0.172
CGCTGGGA | -0.0828
AAATATCG | 0.0709
AGTGTTGG | -0.116
TAGGAAGA | -0.123
GAGGCGCC | -0.178
CGTTGTTA | 0.202
CGAGTACG | 0.00765

Sequence | PBM E-score
CAACTACG | 0.032
CACCCCAC | 0.0161
CGCACGCA | -0.0526
AGCTCGGA | -0.00872
CAGGGACA | 0.47
GTATTTCA | 0.0957
TATGCGGA | 0.11
ACGGATTC | 0.0302
AGACGGGC | -0.0852
AAGTCTCT | -0.0124
CAATGTGA | 0.0388
GAGCTCAC | -0.155
ATCTACAG | 0.133
GCTGGCCA | -0.0605
ACAGACAA | 0.44
CCTACTTA | -0.00398
TGCTAAAA | 0.203
CAATTCTG | 0.0159
CGCGACCC | -0.13
TCGACAGA | -0.101
AATGGTCA | 0.175
GCTGAATA | 0.0327
CACTATCC | -0.0232
CCGATGGC | -0.102
AAAAAAGC | -0.0879

Sequence | PBM E-score
GATCGGCA | -0.0457
GATTGCTA | -0.0824
AGCCCTTG | -0.29
TAGATCGA | 0.0565
GGGAGAAC | -0.172
ATTGTTTG | 0.202
TCAGTTCA | -0.039
ACTTGCAA | 0.0319
AAGGTAAC | 0.0327
ATGGGCAA | 0.0683
TGGGCACA | -0.081
GTGTGAAC | -0.0929
AACCCTGT | -0.0817
AGGATACT | -0.139
ACGCATTA | 0.0828
ACCAGCAT | -0.0593
AGAATAGA | 0.139
ATTTAGGG | 0.112
CCGTCACC | -0.147
ACATCAGG | 0.153
AACGTTCT | 0.0698
ATGCCATA | 0.0177
